Some of the results follow. No stated cut-off is given here; in the data, active = 3.2 or more and inactive = the rest. Most of these values are background signal.
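Further: displayed peptides selected on beads carrying the immobilized SH2 domain, with library peptides lacking any tyrosine serving as negative controls.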

In one experiment the target is SHP2 C-SH2 domain E139D. The experiment is described as follows: enrichment score (SH2-bound / input frequency) (ratio); bacterial display of known human phosphotyrosine sites (pTyr-Var adds point mutants) read by sequencing; higher = stronger binding; tyrosines were phosphorylated by kinases first. As to conditions: peptide library: pTyr-Var.
VDSLRYIFPKL [EIF2B3_Y92_A87V_YF]: the enrichment score is inactive: 1.21.
On to RHCSGYVLIAM [EFR3A_Y73_R70C], for which the enrichment score is inactive: 1.5.
As for LGQRIYQYIRS [DYRK1B_Y271_Q275R], the enrichment score is inactive: 2.56.
For the molecule ISMAGYSIPEL [EDAR_Y406_T403M], the enrichment score was inactive: 1.09.
For the molecule TNQVICLNPPI [DYNC1H1_Y970_Y970C], the enrichment score was inactive: 0.905.
For KPMDTYYDSTR [DYNC2H1_Y2230], the enrichment score is inactive: 0.648.
Turning to KTDVHYRSLGG [DYSF_Y1858], the enrichment score was inactive: 0.513.
As for CGADSYEMEED [EGFR_Y316], the enrichment score is inactive: 0.597.
On to RPIEVYLCPEE [E2F3_Y349_G344R], for which the enrichment score was inactive: 1.22.
On the same count and under the same terms, the result for YADGVYQALEE [DUOX2_Y70] reads inactive: 0.644; that for SLDLSYYHTSS [EMD_Y181_P183H], inactive: 1.06.
The same measure, in the same setting: under KPMDTYFDSTR [DYNC2H1_Y2230_YF] stands inactive: 0.661; under QRIFQYIQSRF [DYRK1B_Y273_YF], inactive: 1.4; under ILDEAYVMAIV [EGFR_Y764_S768I], inactive: 0.654.
With INSLKYAYNIS [EIF2B5_Y583], the enrichment score was inactive: 1.22.
Same read-out and setting: under IKGNMYYENSY [EGFR_Y112_R108K] stands inactive: 1.41.
In the case of GSERDYTFEEL [EIF2S2_Y174_YF], the enrichment score is inactive: 0.543.
Turning to MDDDQYALLTT [EFCAB6_Y675], the enrichment score was inactive: 0.55.

A further experiment deals with SHP2 C-SH2 domain wild-type. The description is as above. As to conditions: peptide library: pTyr-Var.
Regarding VDSLRYIFPKL [EIF2B3_Y92_A87V_YF], the enrichment score was inactive: 1.55.
For RHCSGYVLIAM [EFR3A_Y73_R70C], the enrichment score is inactive: 2.27.
As for LGQRIYQYIRS [DYRK1B_Y271_Q275R], the enrichment score was inactive: 2.07.
Take ISMAGYSIPEL [EDAR_Y406_T403M]: the enrichment score was inactive: 1.08.
Same read-out and setting: the result for TNQVICLNPPI [DYNC1H1_Y970_Y970C] reads inactive: 0.832; that for KPMDTYYDSTR [DYNC2H1_Y2230], inactive: 0.647; that for KTDVHYRSLGG [DYSF_Y1858], inactive: 0.458.
Still for that read-out and setting: the result for CGADSYEMEED [EGFR_Y316] reads inactive: 0.869; that for RPIEVYLCPEE [E2F3_Y349_G344R], inactive: 0.963.
For the molecule YADGVYQALEE [DUOX2_Y70], the enrichment score was inactive: 0.666.
For SLDLSYYHTSS [EMD_Y181_P183H], the enrichment score is inactive: 0.897.
The same measure, in the same setting: the result for KPMDTYFDSTR [DYNC2H1_Y2230_YF] reads inactive: 0.742; that for QRIFQYIQSRF [DYRK1B_Y273_YF], inactive: 1.05.
In the case of ILDEAYVMAIV [EGFR_Y764_S768I], the enrichment score was inactive: 0.798.
For INSLKYAYNIS [EIF2B5_Y583], the enrichment score was inactive: 1.02.
As for IKGNMYYENSY [EGFR_Y112_R108K], the enrichment score was inactive: 1.31.
Take GSERDYTFEEL [EIF2S2_Y174_YF]: the enrichment score was inactive: 0.456.
Regarding MDDDQYALLTT [EFCAB6_Y675], the enrichment score was inactive: 0.667.

The next experiment concerns the target SHP2 N-SH2 domain L43F. The description is as above. To be noted: peptide library: pTyr-Var.
As to VDSLRYIFPKL [EIF2B3_Y92_A87V_YF], the enrichment score is active: 6.04.
On the same count and under the same terms, under RHCSGYVLIAM [EFR3A_Y73_R70C] stands inactive: 1.95.
In the case of LGQRIYQYIRS [DYRK1B_Y271_Q275R], the enrichment score is inactive: 2.08.
Regarding ISMAGYSIPEL [EDAR_Y406_T403M], the enrichment score is inactive: 1.29.
TNQVICLNPPI [DYNC1H1_Y970_Y970C]: the enrichment score is inactive: 0.887.
Still for that read-out and setting: under KPMDTYYDSTR [DYNC2H1_Y2230] stands inactive: 0.747; under KTDVHYRSLGG [DYSF_Y1858], inactive: 0.491.
Consider CGADSYEMEED [EGFR_Y316], for which the enrichment score was inactive: 0.527.
Still for that read-out and setting: under RPIEVYLCPEE [E2F3_Y349_G344R] stands inactive: 0.964.
With YADGVYQALEE [DUOX2_Y70], the enrichment score is inactive: 0.606.
For the molecule SLDLSYYHTSS [EMD_Y181_P183H], the enrichment score is inactive: 1.04.
KPMDTYFDSTR [DYNC2H1_Y2230_YF]: the enrichment score is inactive: 0.657.
Still for that read-out and setting: the result for QRIFQYIQSRF [DYRK1B_Y273_YF] reads inactive: 0.786; that for ILDEAYVMAIV [EGFR_Y764_S768I], inactive: 0.533.
For the molecule INSLKYAYNIS [EIF2B5_Y583], the enrichment score was inactive: 1.13.
In the case of IKGNMYYENSY [EGFR_Y112_R108K], the enrichment score is inactive: 1.1.
In the case of GSERDYTFEEL [EIF2S2_Y174_YF], the enrichment score is inactive: 0.603.
Still for that read-out and setting: under MDDDQYALLTT [EFCAB6_Y675] stands inactive: 0.671.

The next experiment concerns the target SHP2 N-SH2 domain T42A. The experiment is described as above. To be noted: peptide library: pTyr-Var.
In the case of VDSLRYIFPKL [EIF2B3_Y92_A87V_YF], the enrichment score was active: 6.44.
Consider RHCSGYVLIAM [EFR3A_Y73_R70C], for which the enrichment score is inactive: 1.65.
Still for that read-out and setting: the result for LGQRIYQYIRS [DYRK1B_Y271_Q275R] reads inactive: 2.2.
Regarding ISMAGYSIPEL [EDAR_Y406_T403M], the enrichment score is inactive: 2.44.
Regarding TNQVICLNPPI [DYNC1H1_Y970_Y970C], the enrichment score is inactive: 0.663.
For KPMDTYYDSTR [DYNC2H1_Y2230], the enrichment score is inactive: 0.692.
Same read-out and setting: the result for KTDVHYRSLGG [DYSF_Y1858] reads inactive: 0.402.
On the same count and under the same terms, the result for CGADSYEMEED [EGFR_Y316] reads inactive: 0.57; that for RPIEVYLCPEE [E2F3_Y349_G344R], inactive: 0.988.
With YADGVYQALEE [DUOX2_Y70], the enrichment score was inactive: 0.56.
The same measure, in the same setting: under SLDLSYYHTSS [EMD_Y181_P183H] stands inactive: 0.776.
With KPMDTYFDSTR [DYNC2H1_Y2230_YF], the enrichment score is inactive: 0.654.
The same measure, in the same setting: the result for QRIFQYIQSRF [DYRK1B_Y273_YF] reads inactive: 0.989.
ILDEAYVMAIV [EGFR_Y764_S768I]: the enrichment score was inactive: 0.577.
Same read-out and setting: the result for INSLKYAYNIS [EIF2B5_Y583] reads inactive: 1.05; that for IKGNMYYENSY [EGFR_Y112_R108K], inactive: 0.903.
With GSERDYTFEEL [EIF2S2_Y174_YF], the enrichment score was inactive: 0.519.
On to MDDDQYALLTT [EFCAB6_Y675], for which the enrichment score is inactive: 0.639.

The target in the next experiment is SHP2 N-SH2 domain T52S. Described as above. To be noted: peptide library: pTyr-Var.
In the case of VDSLRYIFPKL [EIF2B3_Y92_A87V_YF], the enrichment score was active: 8.84.
On to RHCSGYVLIAM [EFR3A_Y73_R70C], for which the enrichment score is inactive: 1.54.
Regarding LGQRIYQYIRS [DYRK1B_Y271_Q275R], the enrichment score was inactive: 2.33.
With ISMAGYSIPEL [EDAR_Y406_T403M], the enrichment score is inactive: 1.18.
For TNQVICLNPPI [DYNC1H1_Y970_Y970C], the enrichment score was inactive: 0.814.
With KPMDTYYDSTR [DYNC2H1_Y2230], the enrichment score was inactive: 0.788.
For KTDVHYRSLGG [DYSF_Y1858], the enrichment score is inactive: 0.396.
With CGADSYEMEED [EGFR_Y316], the enrichment score was inactive: 0.687.
In the case of RPIEVYLCPEE [E2F3_Y349_G344R], the enrichment score was inactive: 1.15.
On the same count and under the same terms, the result for YADGVYQALEE [DUOX2_Y70] reads inactive: 0.852; that for SLDLSYYHTSS [EMD_Y181_P183H], inactive: 1.08; that for KPMDTYFDSTR [DYNC2H1_Y2230_YF], inactive: 0.624.
On to QRIFQYIQSRF [DYRK1B_Y273_YF], for which the enrichment score is inactive: 0.966.
Same read-out and setting: the result for ILDEAYVMAIV [EGFR_Y764_S768I] reads inactive: 0.557.
Turning to INSLKYAYNIS [EIF2B5_Y583], the enrichment score was inactive: 1.08.
On the same count and under the same terms, the result for IKGNMYYENSY [EGFR_Y112_R108K] reads inactive: 1.01; that for GSERDYTFEEL [EIF2S2_Y174_YF], inactive: 0.496; that for MDDDQYALLTT [EFCAB6_Y675], inactive: 0.628.

The target of a further experiment is SHP2 N-SH2 domain wild-type. The description is as above. As to conditions: peptide library: pTyr-Var.
VDSLRYIFPKL [EIF2B3_Y92_A87V_YF]: the enrichment score is inactive: 3.16.
On to RHCSGYVLIAM [EFR3A_Y73_R70C], for which the enrichment score is inactive: 2.18.
As to LGQRIYQYIRS [DYRK1B_Y271_Q275R], the enrichment score was inactive: 2.11.
For the molecule ISMAGYSIPEL [EDAR_Y406_T403M], the enrichment score was inactive: 0.841.
Still for that read-out and setting: under TNQVICLNPPI [DYNC1H1_Y970_Y970C] stands inactive: 1.18; under KPMDTYYDSTR [DYNC2H1_Y2230], inactive: 0.764.
Same read-out and setting: under KTDVHYRSLGG [DYSF_Y1858] stands inactive: 0.555; under CGADSYEMEED [EGFR_Y316], inactive: 1.03; under RPIEVYLCPEE [E2F3_Y349_G344R], inactive: 1.15.
As to YADGVYQALEE [DUOX2_Y70], the enrichment score is inactive: 0.576.
As to SLDLSYYHTSS [EMD_Y181_P183H], the enrichment score is inactive: 0.82.
On to KPMDTYFDSTR [DYNC2H1_Y2230_YF], for which the enrichment score is inactive: 0.906.
QRIFQYIQSRF [DYRK1B_Y273_YF]: the enrichment score was inactive: 0.829.
Same read-out and setting: under ILDEAYVMAIV [EGFR_Y764_S768I] stands inactive: 0.874; under INSLKYAYNIS [EIF2B5_Y583], inactive: 0.988; under IKGNMYYENSY [EGFR_Y112_R108K], inactive: 1.4.
Turning to GSERDYTFEEL [EIF2S2_Y174_YF], the enrichment score is inactive: 0.745.
Regarding MDDDQYALLTT [EFCAB6_Y675], the enrichment score was inactive: 0.677.

The values are drawn from the supplement of paper PMC10369915.
